Laboratory results as given in patent publication US20090208481A1, “Proteomic analysis of active multiple sclerosis lesions” (published 2009).

Target: Protease Activated Receptor 1 (PAR-1) (Homo sapiens (Human), UniProt P25116)
Test: cell-based or functional assay

B1: recombinant human aPC-L8W (enzyme)
chain: not shown
**Q.** B1 was tested. Which “PAR-1 (relative activity)” value did it give?
**A.** 0.02 relative activity

B2: recombinant human aPC-K193E (enzyme)
chain: not shown
**Q.** B2 was tested. Which “PAR-1 (relative activity)” value did it give?
**A.** 1 relative activity
